Results taken from PMC9505218, “Nitrostilbenes: Synthesis and Biological Evaluation as Potential Anti-Influenza Virus Agents” (Pharmaceuticals, 2022).

Tested on: viral nucleoprotein (NP) nuclear-cytoplasmic traffic
Assay: Immunofluorescence analysis of viral nucleoprotein localisation

Compound	localisation of viral NP
O=[N+]([O-])c1ccc(/C=C/c2ccc(O)c(Cl)c2)cc1 [Compound 6]	retain viral NP in the nucleus
O=[N+]([O-])c1ccc(/C=C/c2ccc(O)cc2)cc1 [Compound 7]	retain viral NP in the nucleus
